From PMC6919601, “Identification of Plasmodium dipeptidyl aminopeptidase allosteric inhibitors by high throughput screening” (PLoS ONE, 2019)
“And” between values parts separate entries of the source, which are not always exact repeats. Equal values may be shown once. The campaign covered roughly 110,000 compounds. About 230 (0.21%) showed an effect of 50% or more. Some of the results follow.

The molecules below were run against DPAP1 (Plasmodium falciparum, UniProt Q8IIJ9) (assay: primary screen, percent inhibition; read by cleavage of a fluorogenic dipeptide substrate; higher = more effect of the substance).
DPAP1, sequence (Q8IIJ9 whole entry, looked up): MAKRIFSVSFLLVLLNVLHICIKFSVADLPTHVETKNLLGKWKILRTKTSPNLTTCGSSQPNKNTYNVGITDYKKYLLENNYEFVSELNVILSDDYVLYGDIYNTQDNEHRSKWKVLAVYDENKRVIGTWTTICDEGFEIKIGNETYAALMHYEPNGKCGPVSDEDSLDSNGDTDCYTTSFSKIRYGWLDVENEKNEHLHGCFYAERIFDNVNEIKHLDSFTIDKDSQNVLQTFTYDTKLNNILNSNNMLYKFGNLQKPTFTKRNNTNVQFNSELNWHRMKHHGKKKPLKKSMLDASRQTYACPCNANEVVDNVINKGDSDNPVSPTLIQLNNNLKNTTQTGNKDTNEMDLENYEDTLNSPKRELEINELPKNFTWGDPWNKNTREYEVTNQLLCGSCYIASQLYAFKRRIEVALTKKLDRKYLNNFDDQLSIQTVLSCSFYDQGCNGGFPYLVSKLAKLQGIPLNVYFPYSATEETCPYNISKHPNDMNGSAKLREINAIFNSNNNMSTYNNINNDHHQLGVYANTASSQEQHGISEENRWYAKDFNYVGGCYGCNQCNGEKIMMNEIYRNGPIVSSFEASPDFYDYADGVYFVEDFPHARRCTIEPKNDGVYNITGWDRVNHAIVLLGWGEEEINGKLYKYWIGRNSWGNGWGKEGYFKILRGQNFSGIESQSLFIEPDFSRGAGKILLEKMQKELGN
Parameters: species or system P. falciparum D10 trophozoite lysates; single well
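Also: 30 min substrate incubation versus DMSO and 10 µM JCP410 controls.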

SMILES	% Inhibition @ 10 uM
O=C(COc1ccc(Cl)cc1Cl)N1CCc2ccccc21	10.9%
O=C(NCCC1=CCCCC1)c1ccc2c(c1)OCO2	2.95%
CCOC(=O)CC1(O)CCOC(C)(C)C1 (stereo not shown)	0.132%
Cc1cccc(NC(=O)c2onc3c2CCCC3)c1C	-8.73%
O=C(NCc1ccccc1Cl)c1ccc2c(c1)ncn2C1CCCC1	0.387%
COc1ccc(-c2nc(CSCC(=O)NC3CCCCC3)c(C)o2)cc1	2.37%
Cc1c(Cl)cccc1-c1ccc(C(=O)Nc2ccccn2)o1	6.22%
CCOC(=O)C1=CN(Cc2ccc(Cl)cc2)C=C(C(=O)OCC)C1c1ccc(OC)cc1OC	3.45%
CC(=O)c1c(C)oc2ccc(N(C(C)=O)S(=O)(=O)c3cc(C)c(C)cc3C)cc12	3.37%
COc1ccc2nc(NC(=O)c3ccc(C)cc3)sc2c1	-2.05%
COCCn1c(C)cc(C(=O)C(=O)Nc2nnc(CSCc3ccccc3)s2)c1C	3.92%
CC1(C)Cc2c(oc(N)c2C#N)CO1	0.774%
CN1C(=O)C2C=CC1C1C(=O)N(Cc3ccccc3)C(=O)C21 (stereo not shown)	5.77%
O=C(COc1ccccc1)Nc1cccc(C(=O)Nc2cccc(Cl)c2)c1	-6.66%
CCC(=O)Nc1c2c(nc3ccccc13)N(C)CC2	2.13% and -4.33%
COc1ccccc1CN1C[C@@H]2C[C@H](C1)c1cccc(=O)n1C2	-3.63%
COc1ccc(/C=C(\NC(=O)c2ccc(C)cc2)C(=O)N2CCOCC2)cc1	0.222%
O=C1CC(c2ccc(Cl)cc2)NC(NC(=O)c2ccccc2F)=N1 (stereo not shown)	1.66%
CC(C)C[C@H](NC(=O)c1cccc([N+](=O)[O-])c1)C(=O)NCC#N	-2.35%
CC1CCN(S(=O)(=O)c2ccc(C3CCCCC3)cc2)CC1	4.37%
Cc1cc(C)c2c(=O)n(CC(=O)NCc3ccc4c(c3)OCO4)sc2n1	12%
O=C(NC1(C(F)(F)F)C(=O)Nc2c1c(=O)[nH]c(=O)n2-c1ccc(Cl)cc1)c1ccco1 (stereo not shown)	-7.56%
Cn1ccc(C(=O)Nc2sc3c(c2C#N)CCCC3)n1	2.36%
CCOc1cccc(C2CC(=O)NC3=C2C(=O)CC(C)(C)C3)c1 (stereo not shown)	-5.88%
COc1ccc(C2C(C#N)=C(N)N(c3nc[nH]n3)C3=C2C(=O)CCC3)c(OC)c1 (stereo not shown)	-1.38%

SMILES	% Inhibition @ 10 uM
COCCCNC(=O)c1c(NC(=O)c2oc3ccccc3c2C)sc2c1CCCC2	0.83%
Cc1ccc(-c2cc3nc4c(c(O)n3n2)CCCC4)cc1	-0.169%
O=C(CN(C1CCCCC1)S(=O)(=O)c1ccc(Cl)cc1)NCc1ccncc1	4.03%
CCOc1cc(C2Nc3ccccc3C(=O)N2Cc2ccco2)ccc1O (stereo not shown)	7.46%
CCOc1ccc(-c2nc(CSCC(=O)NCCCN3CCCC3)c(C)o2)cc1	-0.971%
Cn1c2c(c(=O)n(C)c1=O)C(c1ccc(O)cc1)C1C(=O)c3ccccc3C1=N2 (stereo not shown)	-17.2%
CCCC1=NN2C(=N)/C(=C/c3c[nH]c4ccccc34)C(=O)N=C2S1	4.01%
Cn1c(=O)c2c(nc(OCc3ccc4c(c3)OCO4)n2Cc2ccccc2)n(C)c1=O	0.0645%
CC(C)c1ccc(/C=c2\sc3ncnn3c2=O)cc1	5.12%
COc1ccc(C2CC(c3ccccc3OC(F)F)n3nnnc3N2)cc1 (stereo not shown)	-1.62%
COC(=O)C1=CN(C)C=C(C(=O)OC)C1c1ccccc1C	-5.26%
c1ccc(-c2cc3c(ccc4nonc43)nn2)cc1	-0.294%
CN(Cc1ccccc1)C(=O)C1CCCN(Cc2cc(Br)ccc2O)C1 (stereo not shown)	2.25%
CC(C)NC(=O)c1ccc(N(Cc2ccc(Cl)cc2)S(C)(=O)=O)cc1	-4.82%
OCC1CCCCN1Cc1ccc(Cl)cc1 (stereo not shown)	-1.62%
CCSC1=C(C#N)C(CC(C)C)C2=C(O)CCCC2=N1 (stereo not shown)	-1.32%
CC1Cc2cc(C(=O)C3=C(O)C(=O)N(CC4CCCO4)C3c3ccncc3)ccc2O1 (stereo not shown)	-7.28%
COCCCN1C(=O)C(O)=C(C(=O)c2ccc(C)cc2)C1/C=C/c1ccccc1 (stereo not shown)	3.66%
CCOCCCNC(=O)C(C)Sc1ccc(Cl)cc1 (stereo not shown)	1.71%
CCCCCn1c(=N)c(S(=O)(=O)c2ccc(Cl)cc2)cc2c(=O)n3cccc(C)c3nc21	0.0069%
Cc1ccc(SCC(=O)NCC(C)C)cc1	0.674%
COc1ccc(C2C3=C(N=C4SCC(=O)N42)c2ccccc2CC3)cc1OC (stereo not shown)	0.528%
COc1cccc(-c2nnc(-c3ccc(OC)c(OC)c3)o2)c1	2.41%
Cn1nnnc1SCCCNCc1ccc(F)cc1	-4.71%
O=C(NC12CC3CC(CC(C3)C1)C2)C(F)(F)F	5.98%

SMILES	% Inhibition @ 10 uM
O=C1OC(c2ccc(-c3ccccc3)cc2)=N/C1=C\c1ccc2c(c1)OCO2	-6.77%
O=C(NCc1nc(-c2ccccc2)no1)c1ccc(Br)cc1	-2.99%
CC(C)(C)C1CCc2c(sc(NC(=O)CCCC(=O)O)c2C#N)C1 (stereo not shown)	-0.413%
COc1cc(C2C(C#N)=C(N)N(c3nc[nH]n3)C3=C2C(=O)CCC3)cc(OC)c1OC (stereo not shown)	3.99%
O=C(Nc1ccc(Cl)cn1)c1cccc2c(Br)cccc12	5.98%
O=C(C1=C(O)C(=O)N(CCCn2ccnc2)C1c1cccc(O)c1)c1ccc2c(c1)OCCO2 (stereo not shown)	0.245%
COc1cc(OC)c(NC(=O)c2ccc(Br)o2)cc1Cl	3.74%
CC(C)OC(=O)c1c(NC(=O)C2CCCCC2)sc2c1CCCC2	-1.1%
O=S(=O)(CC(CN1CCCCC1)N1CCCCC1)c1ccc2ccccc2c1 (stereo not shown)	-3.13%
CCOCCn1c(CN2CCCC(C)C2)nc2c1c(=O)n(C)c(=O)n2C (stereo not shown)	-3.23%
CCOc1ccc(CN2CCN(c3ncccn3)CC2)cc1	-5.57%
Cc1ccc(CNC(=O)c2[nH]nc3c2CCCC3)cc1	3.24%
COc1ccccc1NC(=O)CN(Cc1ccccc1)S(C)(=O)=O	-7.18%
O=C(Cn1ccc2cc(S(=O)(=O)N3CCCCC3)ccc21)N1CCCCC1	-2%
CCCNC(=O)C1CCN(S(=O)(=O)c2ccc3nc(O)ccc3c2)CC1	0.589%
COc1ccc(CCn2c3c(c(=O)[nH]c2=O)C(Nc2ncccn2)(C(F)(F)F)C(=O)N3)cc1OC (stereo not shown)	-2.05%
COC(=O)C1=C(C)N(Cc2ccccc2)C(=O)C1(NC(=O)CCc1ccccc1)C(F)(F)F (stereo not shown)	0.221%
CCOCCCNCc1c(C(=O)O)n(Cc2ccc(F)cc2Cl)c2cc(OC)ccc12	9.28%
CCOCCOC(=O)c1cccc2c1-c1ccccc1C2=O	1.76%
CC(C)Cn1cc(NC(=O)N2CCN(Cc3ccccc3)CC2)c2ccccc2c1=O	5.07%
Cc1c(Cl)cccc1NC(=O)CSc1nc2ccc(N)cc2s1	-1.59%
FC(F)(F)c1nnc(-c2ccccc2)o1	-2.55%
O=c1cc(COc2cccc(Cl)c2Cl)nc2scc(-c3ccccc3)n12	-3.14%
COC(=O)C1CC=CCC1C(=O)c1c[nH]c2ccccc12 (stereo not shown)	2.62%
O=C(CSc1nc(O)cc(-c2ccccc2)n1)Nc1ccccc1	2.38%

SMILES	% Inhibition @ 10 uM
O=C1CSC(c2ccccc2)N1C1CCCCC1 (stereo not shown)	-1.84%
Cc1ccc(N2C(=O)NC(=O)/C(=C/Nc3ccccc3)C2=O)cc1	5.66%
COc1ccc(OC)c(CCNC(=O)c2ccc(CS(=O)(=O)c3c(Cl)cccc3Cl)o2)c1	-3.21%
CCOc1ccc(CNCCCSc2nnnn2C)cc1	-4.71%
CN(C(=O)c1cc(-c2ccccc2)[nH]n1)C1CCCCC1	0.359%
O=C(C1=C(O)C(=O)N(CC2CCCO2)C1c1ccc(F)cc1)c1ccco1 (stereo not shown)	-4.91%
COP(=O)(CC(=O)O)c1ccccc1 (stereo not shown)	3.47%
CCOC(=O)c1c(C)[nH]c(C)c1S(=O)(=O)N(C)CC(=O)NCc1cc(C)ccc1C	3.12%
Cc1cc(NS(=O)(=O)c2ccc(NC(=O)c3ccc(F)cc3)cc2)no1	-0.884%
CCN(CC)C(=O)C1CCCN(c2ncnc3c2cnn3-c2ccc(Cl)cc2)C1 (stereo not shown)	-3.2%
Cc1ccc(-n2cccc2C=C2C(=O)N(C)C(=O)N(C)C2=O)cc1Cl	-7.15%
c1cc(CN2CCC(N3CCCCC3)CC2)co1	-3.5%
COc1ccc(CSc2nncn2C)cc1	0.0719%
COc1ccccc1C1CC(c2ccc(C)cc2)=NN1C(=O)CCC(=O)O (stereo not shown)	-2.86%
N#CC1=C(N)OC2=C(C(=O)CC(c3ccccc3)C2)C1c1ccc(Br)cc1 (stereo not shown)	-4.94%
COc1cc(C2C(C(N)=O)=C(C)Nc3ncnn32)ccc1OCC(N)=O (stereo not shown)	4.41%
O=C(NCCc1nc2ccccc2[nH]1)c1ccc(-c2ccccc2)cc1	-0.48%
Cc1ccc(/C(O)=C/C2=NCCNC2=O)cc1	2.4%
Cc1occc1-c1nnc2sc(-c3ccc(-c4ccccc4Cl)o3)nn12	3.18%
O=C(NCc1cccnc1)C1CCCN(S(=O)(=O)N2CCOCC2)C1 (stereo not shown)	2.81%
COc1ccc(-n2c(SCc3nc(-c4cccs4)no3)nnc2-c2ccncc2)cc1	-4.02%
CC(C)(C)Sc1ccc(C(=O)O)s1	-0.0372%
CCC(=O)N1c2ccccc2N=C2CC(C)(C)CC(O)=C2C1c1cc(OC)c(OC)c(OC)c1 (stereo not shown)	-1.44%
CCCCN1C(=O)C(NC(=O)c2ccc(C(C)(C)C)cc2)(C(F)(F)F)C2=C1CC(C)(C)CC2=O (stereo not shown)	3.54%
Cc1ccc(CNC(=O)CC(C)n2nc(C)cc2C)cc1 (stereo not shown)	3.66%
